Among the data in publication PMC8834197 are binding values, retold here.

Amino acid sequences for entries named in this document (tags omitted). A change or cut given only in a name is not applied to a line headed by its entry. Residues count along the entry.
UniProt P48436: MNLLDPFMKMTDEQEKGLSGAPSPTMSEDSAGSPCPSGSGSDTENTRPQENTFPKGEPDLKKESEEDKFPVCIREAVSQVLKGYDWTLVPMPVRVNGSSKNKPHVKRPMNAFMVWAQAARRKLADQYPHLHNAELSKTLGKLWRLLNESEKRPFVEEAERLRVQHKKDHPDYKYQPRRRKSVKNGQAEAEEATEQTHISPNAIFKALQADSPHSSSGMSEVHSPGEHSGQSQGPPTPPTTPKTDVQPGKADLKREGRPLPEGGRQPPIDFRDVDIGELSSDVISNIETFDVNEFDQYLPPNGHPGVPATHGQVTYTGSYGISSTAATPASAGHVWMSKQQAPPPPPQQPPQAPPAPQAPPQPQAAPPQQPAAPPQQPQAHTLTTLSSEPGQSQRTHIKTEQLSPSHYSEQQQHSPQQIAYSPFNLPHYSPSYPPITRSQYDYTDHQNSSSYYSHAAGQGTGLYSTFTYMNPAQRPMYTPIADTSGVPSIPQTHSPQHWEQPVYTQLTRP
LexA-SOX9 truncated fragment Met1-Phe204: residues 1-204 of P48436
LexA-SOX9 truncated fragment Lys205-Ser386: residues 205-386 of P48436
LexA-SOX9 truncated fragment Ser387-Pro509: residues 387-509 of P48436
UniProt Q13546: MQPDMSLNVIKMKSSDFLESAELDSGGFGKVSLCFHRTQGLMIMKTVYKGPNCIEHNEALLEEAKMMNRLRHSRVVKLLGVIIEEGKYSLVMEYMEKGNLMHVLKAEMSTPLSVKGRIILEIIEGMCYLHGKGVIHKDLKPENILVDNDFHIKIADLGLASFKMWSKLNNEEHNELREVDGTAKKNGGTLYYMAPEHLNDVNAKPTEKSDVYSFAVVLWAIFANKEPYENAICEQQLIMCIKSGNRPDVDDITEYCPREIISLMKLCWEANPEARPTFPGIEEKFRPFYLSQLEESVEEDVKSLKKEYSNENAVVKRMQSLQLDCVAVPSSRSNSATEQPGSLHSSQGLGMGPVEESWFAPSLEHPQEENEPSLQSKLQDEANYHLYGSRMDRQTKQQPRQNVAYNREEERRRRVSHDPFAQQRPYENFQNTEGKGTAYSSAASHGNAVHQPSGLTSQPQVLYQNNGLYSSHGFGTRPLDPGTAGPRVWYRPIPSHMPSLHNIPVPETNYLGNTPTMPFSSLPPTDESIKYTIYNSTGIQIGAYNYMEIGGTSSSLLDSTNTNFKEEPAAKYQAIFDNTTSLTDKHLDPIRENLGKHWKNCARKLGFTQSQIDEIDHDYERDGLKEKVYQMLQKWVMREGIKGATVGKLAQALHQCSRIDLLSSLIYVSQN
B42-RIPK1 truncated motif Thr580-Asn671: residues 580-671 of Q13546

No constants are given. Whether binding was seen depends on the method and setting. For some assays here: In cells and extracts the contact can be indirect. Some entries that bind do so weakly or less than the wild type.

Test [1] concerns the target LexA-SOX9 truncated fragment Met1-Phe204 (human) (UniProt P48436). Description: two-hybrid; LexA bait (pGilda) and B42 prey (pJG4-5) in EGY48 yeast; growth on medium lacking leucine with 2% galactose at 30 °C, X-gal and ONPG β-galactosidase analysis.
Test [2] has as its target LexA-SOX9 truncated fragment Ser387-Pro509 (human) (UniProt P48436). The description is as above.
Test [3] deals with LexA-SOX9 (full), human SOX9 in the pGilda/LexA bait vector (human) (UniProt P48436). The description is as above.
Test [4] addresses LexA-SOX9 truncated fragment Lys205-Ser386 (human) (UniProt P48436). The test is described as above.
Test [5] has as its target endogenous SOX9 (human (endogenous in MDAH 2774 by the text, HEK 293 by the legend)) (UniProt P48436). Description: co-IP; endogenous proteins; entire cell lysates (RIPA buffer) incubated with anti-SOX9 or anti-RIPK1 antibody overnight at 4 °C, protein A/G agarose beads, immunoblot. A general note: In western blotting, separated proteins are transferred to a membrane and probed.

Take “B42-RIPK1 truncated motif Thr580-Asn671 (from UniProt Q13546-1 580-671) (domain or fragment)”: the binding result in test [1] is “no binding”; in test [2], “binds”; in test [3], “binds”; in test [4], “no binding”.

For the substance “endogenous RIPK1 (from UniProt Q13546 1-671)”, the binding result in test [5] was “binds”.
